The record followed here is the supplement of paper PMC11417369.

The other results are listed elsewhere or left out.

The subject of the assay is PfHDP1 homeodomain (GST-tagged). Briefly: gcPBM binding intensity (ln(normalized median fluorescence intensity)); higher = stronger DNA binding. In short, it runs like this: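 An Agilent 4 × 180k array of primer-extended double-stranded 36-bp intergenic genomic probes, with negative controls, was incubated for 1 h with GST-tagged P. falciparum DNA-binding domains expressed in E. coli. Alexa488 anti-GST antibody detected bound protein, scanned at 488 nm. Binding intensity is the highest Masliner-normalised natural-log median intensity across replicate spots of either probe orientation.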
Take “AAACGTATTCTATAAAGTACATTATTATAGTAGACC [XGTACX_site8068]”: the “gcPBM binding intensity (ln)” value was 6.17.
The value for “AGAATGGTTTATAAAGGTACGTAATTTTTAATTTTA [XGTACX_site383]” was 6.02; that for “AAAATATTTATTTTTTGTACACATAAAAACGCACTT [XGTACX_site4132]” was 7.45.
For “CATATTTTGTGAAAAAGTACATATATATATATATAT [XGTACX_site6295]”, the “gcPBM binding intensity (ln)” value was 9.38.
The value for “ATATGTCCATATAGTAAATGTTACATTTTAAAGCGC [XGTACX_negctrl_site168]” was 7.
The value for ATTCTTAAAAAATAAGTGCAAAATAATTAAATAAAT was 9.38; that for “TTATATTTTAAGAAATGTACATGATATAATTATCAA [XGTACX_site8693]” was 6.39; that for “TGGATGAGGACATACACACACACATAAGTTGATACA [CACACA_site3423]” was 6.58.
The value for “TTTTTTTTAATTTTCTGTACAAATTTATATATACTA [XGTACX_site4251]” was 6.42; that for “AATGAAAAGGAACATACACACCCCATATAAATATAT [CACACA_site7588]” was 7.27.
With “TATTTCTTATGAAGGACATGCAATATTATTTATCTC [TGCATGCA_site683]”, the “gcPBM binding intensity (ln)” value amounted to 6.35.
The value for “ATAATATATAATATAGTGCATTATTTATTAATTAAT [GTGCAC_site9852]” was 9.34; that for “AGGAAATTTTTTTTTTTTTTTTTTTTTTTTTTTTAC [TGCATGCA_negctrl_site170]” was 5.7; that for “CAAAATATTATGAATTGTACATATTTTAAAACGTTT [XGTACX_site1614]” was 6.38.
The result for “TGATAAGTATACTAAAGTACATGAAAAATAACTTCC [XGTACX_site6908]” reads 6.22; that for “TCCTAATGGTTTAATTGTACAAAAAAAAAAAATATA [XGTACX_site322]”, 6.35; that for “TGATTATAAAAGTAGGTGCTACAAAAATTACACATT [GTGCAC_site9530]”, 6.22.
The value for “ATAGATGTCTTCATATGTACATAAATTCAAGTATAT [XGTACX_site7492]” was 6.54.
In the case of “GGTCTTTTTATGATATGTACTTATATAATATTATAT [XGTACX_site6458]”, the “gcPBM binding intensity (ln)” value was 7.34.
The value for “ATGTAGAAGTAATGCACACATATGTATATATATATA [CACACA_site2494]” was 10.5; that for “AACAGCATGAAGTAAAGTACTAGTTTTATTTATTTA [XGTACX_site1116]” was 6.08.
The result for “TTTCTATAATATTCTACACACCAACAACAAACATAT [CACACA_site6409]” reads 7.3; that for “TATAAATATACAAAGGTGCATAAAAAGTTATGTTTT [GTGCAC_site9832]”, 9.08.
Take “AAAAAATTTTGAAATTGTACATATATAAAAAATATA [XGTACX_site2629]”: the “gcPBM binding intensity (ln)” value was found to be 6.33.
As for “TTTAAATATATTAATACACACACGATATGTACAAAA [CACACA_site539]”, the “gcPBM binding intensity (ln)” value is 6.64.
With “GAATAAATTGTATTGTGTACATATAAAAGCATCTAA [XGTACX_site8271]”, the “gcPBM binding intensity (ln)” value turned out to be 6.64.
The result for “AAATAAAAATTACAAGCATGCATTTTCCTATTTGCA [TGCATGCA_site861]” reads 5.95; that for “GTGTAAAAATTAAAGTGTACACATATATATATATAT [XGTACX_site2251]”, 9.32; that for “TTTCGAATTAAAGCATGTGAAAATTTTCAAAAAATA [XGTACX_negctrl_site577]”, 6.74.
The result for “GAATCACTAATTTTTTTACACACCACAATTTAATTT [CACACA_site8311]” reads 7.09; that for “ACAAAACATAATTGTTGTACAAAAAGAATTATATAT [XGTACX_site8422]”, 8.07.
The value for “ATAATAATATAATATTCACACAATTGAAATAGTGTA [CACACA_site6083]” was 6.39; that for “ATTTTTTCTTATAAAAAAGAAAAAGAAAAAGAAAAA [CACACA_negctrl_site1216]” was 6.43; that for “TATATATTAAGATGCACACACAAGAAGTAATTATAA [CACACA_site5726]” was 8.66.
As to “AAGTTAATGTTTTGCGCACACTTCTTTTTAATATAA [CACACA_site3938]”, the “gcPBM binding intensity (ln)” value worked out at 8.41.
The value for “TTCTTTATATAAACAAGTACATATAAAATACATATA [XGTACX_site8036]” was 6.42; that for “ACAGCTCTAGGACATGCATGTTATATAGAAAAAGAG [TGCATGCA_site703]” was 7.21.
The value for “AAATACATATTTAGAAGTACATTTATACATTTAATA [XGTACX_site8871]” was 6.14.
The value for “TTCATTAAAGTTATTACACACAGTTCTTCAACCAAA [CACACA_site7613]” was 6.51.
In the case of “TGCCTATGACATGAATGTACATTAAAATTAAATAAA [XGTACX_site7126]”, the “gcPBM binding intensity (ln)” value stood at 6.47.
The value for “GTTGGGTAATTCGTAACACACATAAAATATATATAA [CACACA_site3986]” was 6.47; that for “CACGCGCACCAACACACACACACACCCATATATATA [CACACA_site2204]” was 8.31; that for CTGTACACTTAAACGGTGCAAAAAGAAAAAAAAGAA was 10.6.
The value for “GATGAGGACAGACACACACACATAAGTTGATACATA [CACACA_site7580]” was 6.74.
The result for “TTTTTTTCTTAAAGATGTACTTTTTAAAAACAATCT [XGTACX_site986]” reads 6.28; that for “AGACATATTCTTTTTACACACTTGAATAAAAAATAT [CACACA_site1205]”, 6.5; that for “CATTTTATAAAAACAAGTACCCAACATATATATAAT [XGTACX_site5955]”, 6.74.
For “GTTTTTACTTTTATCTGTACATAATACTACCAATAT [XGTACX_site5414]”, the “gcPBM binding intensity (ln)” value is 7.06.
The value for “TATATATAATATGAATGTACACAAAAAGGTAATACA [XGTACX_site6202]” was 6.96; that for “AAAAAAAAGAAATAGACACACATATATTTTTAAACA [CACACA_site3954]” was 6.23.
The value for “ATAATATTATGAACCTGTACATAATTTTTCTTTTCT [XGTACX_site3377]” was 6.06; that for “TATAATTTTTTTGAATTATATATATATATATATAAT [XGTACX_negctrl_site26]” was 6.75.
The result for “AGTATATTTCTAACTTGTACGAAATTAATAATTTAT [XGTACX_site6635]” reads 6.06; that for “TTTGTTGTTGTGAAACGTACTCATAGGATGTTGTAT [XGTACX_site5716]”, 6.41.
As for “ATATTTTCAATGTTCACACATACACAAAAAAAAAAA [CACACA_site6077]”, the “gcPBM binding intensity (ln)” value was 6.43.
The value for “GCTTGGATATATTAATGTACTTATATATTATGTTGT [XGTACX_site3768]” was 6.65.
The result for “AAAATTTTTTTTATTTGTACACAATTCGATACATAA [XGTACX_site4804]” reads 6.76.
